Measured values as given in PMC3407085.
Results are given in words; binding and its absence hold for the method and conditions named. In cells and extracts the contact can be indirect. Some entries that bind do so weakly or less than the wild type. For part of these data: Sequences can lack the tags named with a protein.

Legend:
[1] = biological target: GST-ARNT (UniProt P27540); assay: pull-down; GST fusion proteins immobilised on beads; proteins captured from whole lymphoblastoid cell lysates; Western blotting; only the target purified
[2] = biological target: GST-HIF1A (UniProt Q16665); assay: as above
[3] = biological target: T1, EBNA-3 (endogenous in lymphoblastoid cells) (Epstein-Barr virus (B95.8 strain, expressed in LCLs)) (UniProt P12977); assay: co-IP; anti-EBNA-3 or anti-EBNA-5 antibodies coupled to CNBr-Sepharose; whole cell lysates of 10^7 lymphoblastoid cells; washed with NP40 lysis buffer and PBS; Western blotting
T1 sequence: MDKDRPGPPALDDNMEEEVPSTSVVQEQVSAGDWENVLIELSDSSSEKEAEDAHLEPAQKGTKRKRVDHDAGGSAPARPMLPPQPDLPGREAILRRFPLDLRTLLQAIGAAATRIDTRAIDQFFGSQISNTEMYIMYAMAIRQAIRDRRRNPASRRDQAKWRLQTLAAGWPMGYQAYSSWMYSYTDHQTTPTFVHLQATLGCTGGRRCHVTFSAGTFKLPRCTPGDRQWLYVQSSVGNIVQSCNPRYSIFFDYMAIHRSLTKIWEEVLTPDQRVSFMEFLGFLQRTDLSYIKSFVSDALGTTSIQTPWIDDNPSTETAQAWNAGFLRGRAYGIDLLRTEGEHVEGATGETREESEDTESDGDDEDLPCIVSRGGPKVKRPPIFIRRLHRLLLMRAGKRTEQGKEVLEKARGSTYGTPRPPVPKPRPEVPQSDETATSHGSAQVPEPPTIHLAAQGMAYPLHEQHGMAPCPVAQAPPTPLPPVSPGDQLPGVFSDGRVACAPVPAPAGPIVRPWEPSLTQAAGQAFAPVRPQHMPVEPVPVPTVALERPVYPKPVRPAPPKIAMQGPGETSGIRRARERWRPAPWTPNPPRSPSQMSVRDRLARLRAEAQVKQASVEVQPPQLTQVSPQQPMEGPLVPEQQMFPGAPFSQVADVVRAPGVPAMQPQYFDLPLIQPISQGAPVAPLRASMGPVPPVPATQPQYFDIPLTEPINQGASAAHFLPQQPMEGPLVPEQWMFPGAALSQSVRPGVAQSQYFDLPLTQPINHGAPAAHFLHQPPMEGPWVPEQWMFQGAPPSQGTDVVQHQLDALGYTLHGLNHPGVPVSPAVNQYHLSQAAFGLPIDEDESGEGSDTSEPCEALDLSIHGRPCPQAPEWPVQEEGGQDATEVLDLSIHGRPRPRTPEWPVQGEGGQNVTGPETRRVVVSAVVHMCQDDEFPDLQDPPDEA

[4] = biological target: T2, EBNA-5 (endogenous in lymphoblastoid cells) (Epstein-Barr virus (B95.8 strain, expressed in LCLs)) (UniProt Q8AZK7); assay: as above
T2 sequence: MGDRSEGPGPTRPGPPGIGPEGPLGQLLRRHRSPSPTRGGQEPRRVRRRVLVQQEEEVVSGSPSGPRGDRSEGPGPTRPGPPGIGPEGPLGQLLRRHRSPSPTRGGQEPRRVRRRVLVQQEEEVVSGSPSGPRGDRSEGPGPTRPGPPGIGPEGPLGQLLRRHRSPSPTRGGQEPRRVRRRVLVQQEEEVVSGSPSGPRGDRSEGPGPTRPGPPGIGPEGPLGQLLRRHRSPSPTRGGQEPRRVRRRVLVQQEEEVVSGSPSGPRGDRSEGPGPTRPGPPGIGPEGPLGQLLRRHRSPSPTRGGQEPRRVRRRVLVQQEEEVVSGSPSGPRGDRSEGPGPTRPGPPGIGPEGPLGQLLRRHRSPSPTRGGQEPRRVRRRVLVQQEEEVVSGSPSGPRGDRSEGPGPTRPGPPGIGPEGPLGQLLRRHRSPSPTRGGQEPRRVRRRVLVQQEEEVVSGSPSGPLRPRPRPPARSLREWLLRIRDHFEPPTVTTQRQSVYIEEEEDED

[5] = biological target: T3, GST-EBNA-3 (Epstein-Barr virus) (UniProt P12977); assay: pull-down; GST fusion proteins immobilised on beads; proteins captured from whole lymphoblastoid cell lysates; Western blotting; only the target purified
T3 sequence: T1 sequence

Substance: EBNA-6 (endogenous in lymphoblastoid cells) (from UniProt P03204 1-992)
- binding [1]: no binding
- binding [2]: no binding

Substance: HIF1A (endogenous in lymphoblastoid cells) (from UniProt Q16665-1 1-826)
- binding [3]: binds
- binding [4]: no binding

Substance: prolylhydroxylase 1 (endogenous in lymphoblastoid cells) (from UniProt Q96KS0-1 1-407) (enzyme)
- binding [5]: binds weakly

Substance: prolylhydroxylase 2 (endogenous in lymphoblastoid cells) (from UniProt Q9GZT9-1 1-426) (enzyme)
- binding [5]: binds
